PubChem BioAssay AID588855 (National Center for Advancing Translational Sciences (NCATS), 2011)
The whole screen tested about 410,000 compounds, of which about 5,000 (1.2%) were called active. Inconclusive results, whose numbers are uncertain, are shown with a selection of clear calls. Calls follow the shape of the dose curve; as a rule, active = well fitted inhibition curve with a large enough effect; inconclusive = small, poorly fitted or top-dose-only effect; inactive = no such curve, though single readings can be large or run the other way. Potencies beside an inconclusive call are fits to weak or partial responses and may not hold up.

Test: qHTS for Inhibitors of TGF-b; also: nearly all actives have a fitted effect of over 65% in size
Conditions: HepG2 CAGA-GFP TGF-b/SMAD3 reporter, GFP fluorescence, 18 h, TGF-beta stimulated, 500 pg/mL final; series mostly up to 46.1 µM
How it was run: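 Cell-based qHTS in HEPG2 carrying a CAGA-GFP Smad reporter; compounds added before 500 pg/mL final TGF-beta, 18 h incubation at 37 degrees C, GFP fluorescence quantified per cell by imaging cytometry.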
Potency is read from the fitted curve at half-maximal effect; tags tell the direction and shape of the fitted curve.

| SMILES | Potency |
| --- | --- |
| O=C(O)C[C@H]1c2ccccc2S(=O)(=O)N1c1ccccc1 | inactive |
| CC(=O)c1ccc(OCCCC(=O)Nc2ccc(C)c(S(=O)(=O)N3CCCCC3)c2)cc1 | inconclusive: 35.5 µM [inhibitor, partial curve, poor fit] |
| COC(=O)c1ccc(Cl)c(NC(=O)CSc2ncn[nH]2)c1 | inconclusive: 25.1 µM [inhibitor, single point] |
| COc1ccc(/C=N/Nc2nccnc2Cl)cc1 | inactive |
| CCCCCCSc1ccc([C@@H]2[C@H]3C(=O)N(C)C(=O)[C@H]3[C@]3(C(=O)OC)CCCCN23)cc1 | inconclusive: 35.5 µM [inhibitor, single point] |
| CCn1c(CSCc2ccccc2)n[nH]c1=S | inactive |
| CCN(CC)c1nn2c(=O)c(C(=O)NCc3cccc(OC)c3OC)cnc2s1 | inactive |
| CCOC(=O)Cn1nnnc1CN(Cc1cccs1)Cc1cc2cc(C)ccc2[nH]c1=O | inconclusive: 35.5 µM [inhibitor, single point] |
| COc1ccc(N2CCN(C(=O)c3cn(C4CCCCC4)c(=O)c4c3c3ccccc3n4C)CC2)cc1 | inconclusive: 7.08 µM [inhibitor, partial curve, poor fit] |
| COC(=O)c1cc(OC)c(OC)c(OC)c1NC(=O)c1cc(=O)n(C)c(=O)n1C | inconclusive: 12.6 µM [inhibitor, partial curve, poor fit] |
| Cc1cccc(C(=O)c2cnc3ccccc3c2-c2ccccc2)c1 | inconclusive: 14.1 µM [inhibitor, single point] |
| CCO[C@@H]1OC(C(=O)N2CCN(Cc3ccc4c(c3)OCO4)CC2)=C[C@H](c2ccc(Br)cc2)[C@H]1CCCO | inconclusive: 11.2 µM [inhibitor, single point] |
| CCOc1ccccc1N1CN(CC)CNC1=S | inactive |
| COc1cc(C2C(C#N)=C(C)NC3=C2C(=O)c2ccccc23)cc(OC)c1OC (stereo not given) | inconclusive: 1.58 µM [inhibitor, full curve] |
| COc1cc(/C=N/OCC(=O)NC2CCCCC2C)ccc1OCc1ccc(Cl)cc1 (stereo not given) | inconclusive: 31.6 µM [inhibitor, single point] |
| Cc1ccc(-c2csc(N3CCN(c4cc5c(cc4Cl)nc(-c4ccncc4)n5CCN4CCCCC4)CC3)n2)cc1 | inconclusive: 35.5 µM [inhibitor, single point] |
| FC(F)(F)Oc1ccc(NC(=S)NCc2ccccc2)cc1 | inconclusive: 20 µM [inhibitor, single point] |
| COc1ccc(C)cc1NC(=O)CN1CCCN(S(=O)(=O)c2ccc(Br)cc2)CC1 | inconclusive: 12.6 µM [inhibitor, partial curve, poor fit] |
| CCOc1ccc2[nH]c(C(=O)N/N=C/c3ccc(OC)cc3)cc2c1 | inconclusive: 5.62 µM [inhibitor, full curve, poor fit] |
| CC(C)(C)C(=O)N1CCC2CC1c1cc(Cl)ccc12 (stereo not given) | inconclusive: 6.31 µM [inhibitor, single point] |
| O=C(c1ccccc1F)N1CCN(c2ccc([N+](=O)[O-])cc2-n2cccc2)CC1 | inconclusive: 22.4 µM [inhibitor, single point] |
| CCOC(=O)N1CCN(Cc2nnc(-c3ccccc3C)o2)CC1 | inactive |
| Cc1scc(-c2n[nH]c(=S)n2C(C)c2ccccc2)c1C (stereo not given) | inconclusive: 35.5 µM [inhibitor, single point] |
| Cc1cc(C)nc(/N=C(\N)Nc2ccc(OCc3ccccc3)cc2)n1 | active: 0.251 µM |

| SMILES | Potency |
| --- | --- |
| O=C(CN1CCN(c2ccccc2O)CC1)Nc1cc([N+](=O)[O-])ccc1Cl | inactive |
| CCOC(=O)C1=C(C)N=c2sc(=Cc3ccc(OCC(=O)O)cc3)c(=O)n2C1c1ccc(Cl)cc1 (stereo not given) | inconclusive: 35.5 µM [inhibitor, single point] |
| Cn1nnnc1SCC(=O)Nc1nc(-c2ccccc2)c(-c2ccccc2)o1 | inconclusive: 0.282 µM [inhibitor, full curve, poor fit] |
| CC1=CC(=O)C2(C)C(C)=C(C)C12C (stereo not given) | inactive |
| O=C(Nc1nnc(-c2ccccn2)o1)c1cccc(Br)c1 | inactive |
| CCCNC(=O)C1(CC2CC(c3ccccc3)=NO2)CCN(C(=O)C2CCCC2)CC1 (stereo not given) | inconclusive: 3.98 µM [inhibitor, full curve, poor fit] |
| Cc1nc([N+](=O)[O-])c(Sc2nc3ccc([N+](=O)[O-])cc3[nH]2)n1Cc1ccccc1 | inactive |
| Clc1ccccc1CNc1nc2ccccc2c2nc(-c3ccccc3)nn12 | inconclusive: 14.1 µM [inhibitor, single point] |
| O=C(C1CCCCC1)N(Cc1cccnc1)c1nc2c(F)cccc2s1 | inconclusive: 11.2 µM [inhibitor, partial curve, poor fit] |
| COc1ccc(-n2sc3ccccc3c2=O)cc1 | active: 20 µM |
| CC1CCCCN1C(=O)CN1CCN(S(=O)(=O)c2ccc(Br)cc2Cl)CC1 (stereo not given) | inconclusive: 8.91 µM [inhibitor, partial curve, poor fit] |
| COc1ccc(C)cc1NC(=O)C(Sc1nnnn1C)c1ccccc1 (stereo not given) | inactive |
| Cc1ccc(N(C)S(=O)(=O)c2ccc(-c3cnc(C4CC4)o3)cc2)cc1 | active: 6.31 µM |
| Oc1cccc(/C=N/N(Cc2ccccc2)c2ccccc2)c1 | inconclusive: 35.5 µM [inhibitor, single point] |
| CC(=O)c1ccccc1OC(=O)COc1ccc([N+](=O)[O-])cc1 | inactive |
| CC(C)SC1=NC(C)(C)C=C(/C=C/c2ccc(Cl)cc2Cl)N1 | inconclusive: 14.1 µM [inhibitor, partial curve, poor fit] |
| c1ccc(N=NC2=NN(c3ccccc3)CS2)cc1 | inconclusive: 35.5 µM [inhibitor, single point] |
| CCC1Oc2ccc(C)cc2N(CC(=O)NCc2ccc(F)cc2)C1=O (stereo not given) | inactive |
| O=C(Nc1ccccc1)c1cc2ccc3ccccc3c2s1 | inactive |
| O=C(Nc1cccc(Cl)c1)C(Cc1ccccc1)n1cccc1 (stereo not given) | inconclusive: 35.5 µM [inhibitor, single point] |
| CC1=C(C(N)=O)C(c2cccs2)n2nc(-c3cccc(C)c3)nc2N1 (stereo not given) | inactive |
| O=C(C1CCN(S(=O)(=O)c2cc(Cl)ccc2Cl)CC1)N1CCOCC1 | inactive |
| COc1cc2c(cc1OC)CN(C(=O)c1ccc3[nH]c(C)c(C)c3c1)CC2 | inconclusive: 11.2 µM [inhibitor, single point] |
| COc1cccc2sc(N(Cc3cccnc3)C(=O)C3CCCCC3)nc12 | inconclusive: 22.4 µM [inhibitor, single point] |

| SMILES | Potency |
| --- | --- |
| O=C1NCCSC1c1ccccc1 (stereo not given) | inconclusive: 1.26 µM [inhibitor, partial curve] |
| COc1cc(C2C(C(=O)c3cccs3)=C(O)C(=O)N2CCN2CCOCC2)cc(OC)c1OC (stereo not given) | inconclusive: 35.5 µM [inhibitor, single point] |
| CC(Oc1ccc(Br)cc1)C(=O)Nc1nc(-c2ccccn2)cs1 (stereo not given) | inconclusive: 20 µM [inhibitor, partial curve, poor fit] |
| Cc1ccc(S(=O)(=O)NCc2ccc(C(=O)NCCCN3CCC(Cc4ccccc4)CC3)cc2)cc1 | inactive |
| COc1ccc(Nc2nc(-c3ccccc3O)nc3ccccc23)cc1 | inconclusive: 35.5 µM [inhibitor, single point] |
| Cc1ccc(NC(=O)C(c2ccccc2)N2CCN(C(=O)c3ccco3)CC2)cc1Cl (stereo not given) | inconclusive: 14.1 µM [inhibitor, single point] |
| Cc1ccc(C2(C(F)(F)F)NC(=O)N3CCN=C3S2)cc1 (stereo not given) | inactive |
| Cc1ccc(NC(=S)NCCc2ccccc2)nc1 | inactive |
| COc1cccc(/C=C2\CCC(C3CCCC3)C2=O)c1 (stereo not given) | inconclusive: 35.5 µM [inhibitor, single point] |
| CN(C)CCCN(C(=O)COc1ccc(Cl)cc1)c1nc2cc3c(cc2s1)OCO3 | inconclusive: 20 µM [inhibitor, single point] |
| COc1cc2nc(N3CCCN(C)CC3)nc(NC3CCN(Cc4ccccc4)CC3)c2cc1OC | active: 3.16 µM |
| CCN(CC)S(=O)(=O)c1ccc(NC(=O)C2CCCN(C(=O)c3ccc(Cl)cc3)C2)cc1 (stereo not given) | inconclusive: 12.6 µM [inhibitor, partial curve] |
| O=C(c1ccc(Cn2cc(Br)cn2)o1)n1cccn1 | inactive |
| CC(C)(C)CC(C)(C)NC(=S)NC1CCN(Cc2ccccc2)CC1 | inconclusive: 35.5 µM [inhibitor, single point] |
| CC(C)CC(=O)Nc1nnc(S(=O)(=O)N(C)c2ccc(Cl)cc2)s1 | inconclusive: 11.2 µM [inhibitor, partial curve, poor fit] |
| O=C(NC(c1cccnc1)c1ccc2c(c1)OCO2)C1CCN(CCOc2ccc(Cl)cc2Cl)CC1 (stereo not given) | inconclusive: 14.1 µM [inhibitor, single point] |
| COc1ccc(NC(=O)c2sc(=O)n(Cc3cccc(C(F)(F)F)c3)c2C)cc1OC | inconclusive: 35.5 µM [inhibitor, single point] |
| CCN(CC(O)c1cccc(O)c1)C(=O)C12CC3CC(CC(C3)C1)C2 (stereo not given) | inactive |
| Cc1ccc(S(=O)(=O)Nc2ccc(S(=O)(=O)NCC3CCCO3)cc2)cc1 (stereo not given) | inactive |
| COc1cccc(NC(=O)c2oc3ccccc3c2NC(C)=O)c1 | inactive |
| O=C(COC(=O)CCC1CCCC1)Nc1ccc(Cl)cc1F | inconclusive: 3.98 µM [inhibitor, full curve, poor fit] |
| CC(=O)NCCNc1nc(NCc2cccs2)nc2ccsc12 | inactive |
